Data taken from ChEMBL document CHEMBL1201862, “PubChem BioAssay data set” (2004).

test system: NCI-H322M; assay: NCI-60 cell line screen, 48 h

Row | Structure (SMILES) | GI50
1 | Sc1nnc(COc2ccc(Cl)cc2)o1 | inactive: > 100 µM
2 | CC(C)(C)c1ccc(OCCOc2ccc(C(C)(C)C)cc2NC=O)c(NC=O)c1 | inactive: 19.5 µM
3 | COc1ccc(CC2C(=O)NC(C)C(=O)N(C)C3Cc4ccc(cc4)Oc4cc(ccc4O)CC(C(=O)NC(C)C(=O)NC(C)C(=O)N2C)N(C)C3=O)cc1 (centres undefined) | active: 0.0175 µM
4 | CC1(CCOCc2ccccc2)NC(=O)NC1=O (centres undefined) | inactive: > 100 µM
5 | C[C@@]12C[C@@H](c3ccccc3O1)N1CCCSC1=N2 | inactive: > 100 µM
6 | COc1cc(/C=N/N=C2NCCCN2)ccc1O | inactive: > 100 µM
7 | Cc1ccsc1/C=N/Nc1cc(C)c2cccc(C)c2n1 | inactive: > 100 µM
8 | Cc1cccc(C(C)(C)C)c1NC(=O)C(=O)C(C(=O)/C=C\c1ccccc1)C1OC(=O)c2ccccc21 (centres undefined) | inactive: > 100 µM
9 | COC1=C(OC)C(O)(c2ccccc2)C1=O (centres undefined) | inactive: > 100 µM
10 | CCSc1nc2sc(C)c(C)c2c(=O)n1-c1ccc(C(=O)O)cc1 | inactive: 96.6 µM
11 | O=C1OCC/C1=N/O | inactive: > 100 µM
12 | N#CCCN(CCCN(C(=O)Nc1ccc(NC(=O)N(CCCN(CCC#N)C(N)=O)c2ccccc2)cc1)c1ccccc1)C(N)=O | inactive: > 100 µM
13 | COc1ccc(/C=N/NC(=O)O)cc1 | inactive: > 100 µM
14 | N#C/C(=C/NC(N)=S)C(N)=O | inactive: > 100 µM
15 | CC(C)CC(NC(=O)C(COc1ccc([N+](=O)[O-])cc1)Cc1ccccc1)C(=O)Nc1ccccc1 (centres undefined) | inactive: > 100 µM
16 | Cc1ccc(N2C(=O)/C(=C/c3ccc(N(CCC#N)CCC#N)cc3)N=C2COc2ccc(Cl)cc2Cl)cc1 | inactive: > 100 µM
17 | NC(=S)NNCC(=O)CC(O)(C(F)(F)F)C(F)(F)Cl (centres undefined) | inactive: > 100 µM
18 | CCN(CC)CCN1C=CC(C)C(C(=O)O)C1C(N)=O (centres undefined) | inactive: > 100 µM
19 | COc1ccc(OC)c2c1CC(C(=O)O)(C(=O)O)CC2=O | inactive: > 100 µM
20 | CSC1=NN(C(C)=O)C(C(OC(C)=O)C(OC(C)=O)C(OC(C)=O)C(COC(C)=O)OC(C)=O)S1 (centres undefined) | inactive: > 100 µM
21 | CC(=O)O[C@H]1C(=O)[C@@]2(C)[C@H]([C@H](OC(=O)c3ccoc3)[C@]3(O)C[C@H](OC(=O)[C@H](O)[C@@H](NC(=O)c4ccccc4)c4ccccc4)C(C)=C1C3(C)C)[C@]1(OC(C)=O)CO[C@@H]1C[C@@H]2O | active: 0.114 µM

Row | Structure (SMILES) | GI50
22 | COc1ccccc1/N=N/c1c(-c2ccccc2)nn(C(=O)CC(=O)Nc2ccccc2Cl)c1-c1ccccc1 | inactive: > 100 µM
23 | Oc1ccc2ccccc2c1C(c1ccc(Cl)cc1)c1c(O)ccc2ccccc12 | inactive: 2.39 µM
24 | N=C(N)NS(=O)(=O)c1ccc(NC(=O)c2cccc3c(Nc4ccc(S(=O)(=O)N=C(N)N)cc4)c4ccccc4nc23)cc1 | inactive: 95.5 µM
25 | O=c1c2ccccc2n2nnc3ccc(NCCCNCCNCCCNc4ccc5nnn6c7ccccc7c(=O)c4c56)c1c32 | inactive: 2.42 µM
26 | CCOC(=O)C1(C(=O)OCC)CC(=O)[C@@]2(C1)OCC[C@H]1OC(=O)C[C@H]12 | inactive: > 100 µM
27 | CSc1nc(Br)nc2ncn(C3CC(Oc4ccc(C)cc4)C(COc4ccc(C)cc4)O3)c12 (centres undefined) | inactive: > 100 µM
28 | CN(C)/C=N/c1c2c(nc3ccccc13)CCCC2 | inactive: > 100 µM
29 | O=C(Cc1nc2ccc(C(=O)c3ccccc3)cc2nc1O)C(=O)Nc1ccccc1[N+](=O)[O-] | inactive: > 100 µM
30 | CSC1NNC2(C(=O)N1)c1ccccc1-c1ccccc12 (centres undefined) | inactive: > 10 µM
31 | CC(=O)OCCOCn1c2c(c(=O)[nH]c1=O)CCC2 | inactive: > 100 µM
32 | CCC(C)C1NC(=O)CNC(=O)C2Cc3c([nH]c4cc(O)ccc34)[S+]([O-])CC(NC(=O)CNC1=O)C(=O)NC(CC(=O)O)C(=O)N1CC(O)CC1C(=O)NC(C(C)C(O)CO)C(=O)N2 (centres undefined) | inactive: 5.16 µM
33 | CC(C)(CN1CCOCC1)C(=O)/C=C/c1ccc(/C=C/C(=O)C(C)(C)CN2CCOCC2)cc1 | inactive: 1.44 µM
34 | Fc1cccc(C2SCc3nc4ccccc4n32)c1 (centres undefined) | inactive: > 100 µM
35 | O=C1N[C@H]2C(=O)c3c(Br)sc(Br)c3[C@H]2O1 | inactive: 14.6 µM
36 | COc1ccc(OCC(=N/NC(=O)c2ccncc2)/N=C/c2cccnc2)cc1 | inactive: > 100 µM
37 | C#C[C@H](CCCC)OC(=O)N[C@H](C)c1ccccc1 | inactive: 61.9 µM
38 | O=C(CCN1CCCC1)c1ccc(Oc2ccc(F)cc2)cc1 | inactive: > 100 µM
39 | CCCCN/C(=N\C#N)N(Cc1ccccc1)Cc1ccccc1 | inactive: 48.8 µM
40 | O=C1CSC(c2cccc([N+](=O)[O-])c2)N1c1ccc(-c2ccc(-n3c(-c4ccccc4)nc4ccccc4c3=O)cc2)cc1 (centres undefined) | inactive: 60 µM
41 | O=C(O)C1C2C=CC(O2)C1C(=O)Nc1ccccc1 (centres undefined) | inactive: > 100 µM
42 | COc1ccc(OC)c(/C=C/c2cnnc3ccccc23)c1 | inactive: > 10 µM

Row | Structure (SMILES) | GI50
43 | C/C(=N\NC(N)=S)C(CN1CCCCC1)C(C1=C(O)c2ccccc2OC1)c1ccccc1 (centres undefined) | inactive: > 100 µM
44 | Cc1ccc2c(=O)c(C(=O)N(CCO)CCO)c[nH]c2n1 | inactive: > 100 µM
45 | CC(=O)N1CCc2c([nH]c3ccc(Br)cc23)C1c1ccccc1 (centres undefined) | inactive: > 10 µM
46 | CC(=O)OC1CCC2C3CCc4c(C)ccc(OS(=O)(=O)c5ccccc5)c4C3CCC12C (centres undefined) | inactive: 22.6 µM
47 | C/C(CCn1[nH]c(=O)ccc1=O)=N\NC(=O)C(=O)NN | inactive: > 100 µM
48 | O=C(O)c1nccnc1C(=O)O | inactive: > 100 µM
49 | COC(=O)C1CC2(CC3=C1CCCC3)OCCO2 (centres undefined) | inactive: > 100 µM
50 | CCOC(=O)/C(=C\NC(N)=S)C(=O)c1ccccc1 | inactive: > 100 µM
51 | O=C(n1c(=O)n(-c2ccc([N+](=O)[O-])cc2)c(=O)n1C(=O)C(Cl)(Cl)Cl)C(Cl)(Cl)Cl | inactive: > 100 µM
52 | CCOC(=O)c1ccc(-c2onc(C)c2Br)[nH]1 | inactive: > 100 µM
53 | COc1cc(OC)c(/C=C\c2cc(/C=C/c3c(OC)cc(OC)cc3OC)c3ccccc3[n+]2C)c(OC)c1 | inactive: 6.38 µM
54 | CN(C)C(=C1c2cc([N+](=O)[O-])ccc2-c2ccc([N+](=O)[O-])cc21)N(C)C | inactive: > 100 µM
55 | O=S(=O)(C1=CC(S(=O)(=O)c2ccccc2)COC1)c1ccccc1 (centres undefined) | inactive: > 100 µM
56 | C=CCSC1=N/C(=C\c2ccccc2)C(=O)N1CC=C | inactive: 69.5 µM
57 | O=C(Nc1ccccc1)C(=O)C(C(=O)c1ccccc1F)C1OC(=O)c2ccccc21 (centres undefined) | inactive: 22.3 µM
58 | CN(CC1(CO)CCC1)c1cc(Cl)nc(N)n1 | inactive: > 100 µM
59 | CCOC(=O)N1C(=S)C(C(=O)OC)(C(=O)OC)N=C1C | inactive: > 100 µM
60 | O=C(/C=C/c1ccccc1)CC(=O)CCC(=O)Nc1ccc(Cl)cc1 | inactive: > 100 µM
61 | O=C(O)C1C(Br)(c2ccccc2)C1(Br)c1ccccc1 (centres undefined) | inactive: 29.9 µM
62 | COc1ccc2cc(NC(=O)Nn3cnnc3)ccc2c1 | inactive: > 100 µM
63 | CC1(C)C(=O)C2(N)CCC1C2 (centres undefined) | inactive: > 100 µM

Row | Structure (SMILES) | GI50
64 | CC(=O)C1CC(C)=CCC12C(=O)Nc1ccccc12 (centres undefined) | inactive: > 100 µM
65 | CC(=O)OCC(=O)[C@@]12OC(C)(C)O[C@@H]1C[C@H]1[C@@H]3CC=C4C[C@@H](O)CC[C@]4(C)[C@H]3CC[C@@]12C | inactive: > 100 µM
66 | O=C1NC(=O)C(F)(n2cc(F)c(=O)[nH]c2=O)C(O)N1 (centres undefined) | inactive: > 10 µM
67 | CC1=Nc2c(O)nc(S)nc2NC(c2c(Cl)cccc2Cl)C1 (centres undefined) | inactive: 6.43 µM
68 | COc1cc(O)c2c(=O)c(OC)c(-c3ccc4c(c3)OCO4)oc2c1OC | inactive: > 50 µM
69 | C[C@H](C(=O)N1C(=O)O[C@@H](c2ccccc2)[C@H]1C)[C@H](c1ccccc1)N(Cc1ccccc1)OC(=O)c1ccccc1 | inactive: 15.5 µM
70 | COC(=O)c1c2c(cc3c1CC1(Cc4cc5c(cc4C1=O)CCC5)C3)CCC2 (centres undefined) | inactive: 48.4 µM
71 | CO/C(=N\N=C\c1cccc(C(F)(F)F)c1)c1ccncc1 | inactive: 36.9 µM
72 | CSc1nc2c(nc(N)n2C2OC(COC(C)=O)C(OC(C)=O)C(OC(C)=O)C2OC(C)=O)c(=O)n1C (centres undefined) | inactive: > 100 µM
73 | CCN(CC)CCCC(C)Nc1ccnc(/C=C/c2ccc(Cl)cc2)c1 (centres undefined) | inactive: 2.31 µM
74 | CCCCCCCCCCCCCCCCCC(=O)Nc1ccn(C2OC(CO)C(O)C2O)c(=O)n1 (centres undefined) | inactive: 38.3 µM
75 | O=C(O)c1ccccc1/N=N/c1c(O)c(S(=O)(=O)O)cc2cc(S(=O)(=O)O)ccc12 | inactive: > 100 µM
76 | C=C(C)[C@]12CC(C)C34OC(/C=C\C=C\CCCCCCCCC)(O[C@@H]1[C@@H]3[C@@H]1O[C@]1(CO)[C@@H](O)[C@]1(O)C(=O)C(C)=C[C@@H]41)O2 (some centres undefined) | active: 0.124 µM
77 | C[N+](C)(CCCCCC[N+](C)(C)CCCN1C(=O)c2cccc3cccc(c23)C1=O)CCCN1C(=O)c2cccc3cccc(c23)C1=O | inactive: > 100 µM
78 | CC(C)(C)[C@H]1CC[C@@](O)(c2ccccc2)CC1.CC(C)(C)[C@H]1CC[C@](O)(c2ccccc2)CC1 | inactive: 29.2 µM
79 | CC(=O)O[C@H]1C[C@H](O[C@H]2[C@@H](O)C[C@H](O[C@H]3[C@@H](O)C[C@H](O[C@H]4CC[C@@]5(C)[C@H](CC[C@@H]6[C@@H]5CC[C@]5(O)[C@@H](C7=CC(=O)OC7)CC[C@]65O)C4)O[C@@H]3C)O[C@@H]2C)O[C@H](C)[C@H]1O[C@@H]1O[C@H](CO)[C@@H](O)[C@H](O)[C@H]1O | active: 0.354 µM
80 | C[N+](C)(C)CC1CCCC(C[N+](C)(C)C)C1=NO (centres undefined) | inactive: > 100 µM
81 | C[C@@H]1C[C@H]2CC[C@H](O2)[C@H](C)C(=O)O[C@@H](C)C[C@@H]2CC[C@@H](O2)[C@@H](C)C(=O)O[C@H](C)C[C@H]2CC[C@H](O2)[C@H](C)C(=O)O[C@@H](C)C[C@@H]2CC[C@@H](O2)[C@@H](C)C(=O)O1 | inactive: 1.18 µM
82 | CCOC(=O)c1c2c(n3ccccc13)C(=O)c1ccccc1C2=O | inactive: 3.02 µM
83 | O=C1CC(c2ccc(Cl)cc2)Oc2ccccc21 (centres undefined) | inactive: 68.9 µM
84 | Cc1ccc(S(=O)(=O)NC(=O)Nc2nc(Cl)cc(Cl)n2)cc1 | inactive: > 100 µM

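How tested: cells in 96-well plates exposed to compound for 48 hours at five concentrations. GI50 = concentration required for 50% inhibition of growth.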 Calls of active or inactive are those of the source. No stated cut-off is given here; in the data, active = GI50 up to about 1.1 µM and inactive = higher.
